Laboratory results as given in the supplement of paper PMC4604168 (melanoma cell lines).
The list shows a part of the results. Most values come without repeats; read them as rough.
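Further: cell number obtained by counting DAPI-stained nuclei in high-throughput microscope images with image analysis software, screen run in 1,536-well plates.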

The compounds below were run on UACC62 (assay: cell count relative to DMSO control; melanoma cells; higher = more viable cells). Conditions: library dose: low library concentration; 72 h.
`C[C@]12O[C@H](C[C@]1(O)CO)n1c3ccccc3c3c4c(c5c6ccccc6n2c5c31)CNC4=O` [Lestaurtinib] + CNC(=O)c1cc(Oc2ccc(NC(=O)Nc3ccc(Cl)c(C(F)(F)F)c3)cc2)ccn1 [sorafenib] (first compound 0.004 µM, partner dose 0.4 µM) gave a cell count of 76.4%. In the case of `N.N.[Cl][Pt][Cl]` [cisplatin] + CO[C@H]1C[C@@H]2CC[C@@H](C)[C@@](O)(O2)C(=O)C(=O)N2CCCC[C@H]2C(=O)O[C@H]([C@H](C)C[C@@H]2CC[C@@H](OCCO)[C@H](OC)C2)CC(=O)[C@H](C)/C=C(\C)[C@@H](O)[C@@H](OC)C(=O)[C@H](C)C[C@H](C)/C=C/C=C/C=C/1C [everolimus] (first compound 1.6 µM, partner dose 0.02 µM), the cell count was 66.1%. With `C[C@]12O[C@H](C[C@]1(O)CO)n1c3ccccc3c3c4c(c5c6ccccc6n2c5c31)CNC4=O` [Lestaurtinib] + C=CCNC1=C2C[C@@H](C)C[C@H](OC)[C@H](O)[C@@H](C)/C=C(\C)[C@H](OC(N)=O)[C@@H](OC)/C=C\C=C(/C)C(=O)NC(=CC1=O)C2=O [Tanespimycin] (first compound 0.004 µM, partner dose 0.002 µM) the cell count was 108%. `C[C@]12O[C@H](C[C@]1(O)CO)n1c3ccccc3c3c4c(c5c6ccccc6n2c5c31)CNC4=O` [Lestaurtinib] + COc1ccc(Cl)c(Nc2nc3ccccc3nc2NS(=O)(=O)c2cccc(NC(=O)C(C)(C)N)c2)c1 [XL147] (first compound 0.004 µM, partner dose 0.8 µM) gave a cell count of 92.8%. `C[C@]12O[C@H](C[C@]1(O)CO)n1c3ccccc3c3c4c(c5c6ccccc6n2c5c31)CNC4=O` [Lestaurtinib] + CCN(CC)CCNC(=O)c1c(C)[nH]c(/C=C2\C(=O)Nc3ccc(F)cc32)c1C [sunitinib] (first compound 0.004 µM, partner dose 0.4 µM) was tested, and the cell count was 76.6%. Compound `C[C@]12O[C@H](C[C@]1(O)CO)n1c3ccccc3c3c4c(c5c6ccccc6n2c5c31)CNC4=O` [Lestaurtinib] + CS(=O)(=O)c1ccc(C(=O)Nc2ccc(Cl)c(-c3ccccn3)c2)c(Cl)c1 [vismodegib] (first compound 0.004 µM, partner dose 1 µM) has a cell count of 96.6%. For `C[As](C)SC[C@H](NC(=O)CC[C@H](N)C(=O)O)C(=O)NCC(=O)O` [Darinaparsin] + Cn1cc(/C=C2\C(=O)Nc3cccnc32)c2ccccc21 [GW441756] (first compound 0.4 µM, partner dose 0.4 µM), the cell count was 91.8%. For `C[C@]12O[C@H](C[C@]1(O)CO)n1c3ccccc3c3c4c(c5c6ccccc6n2c5c31)CNC4=O` [Lestaurtinib] + CC(=O)c1c(C)c2cnc(Nc3ccc(N4CCNCC4)cn3)nc2n(C2CCCC2)c1=O [palbociclib] (first compound 0.004 µM, partner dose 0.04 µM), the cell count was 86.5%. `C[C@]12O[C@H](C[C@]1(O)CO)n1c3ccccc3c3c4c(c5c6ccccc6n2c5c31)CNC4=O` [Lestaurtinib] + Nc1nc(F)nc2c1ncn2[C@@H]1O[C@H](CO)[C@@H](O)[C@@H]1O [fludarabine] (first compound 0.004 µM, partner dose 0.2 µM) gave a cell count of 64.9%. Compound `Cn1cc(C2=C(c3cn(C4CCN(Cc5ccccn5)CC4)c4ccccc34)C(=O)NC2=O)c2ccccc21` [Enzastaurin] + C[C@]12O[C@H](C[C@]1(O)CO)n1c3ccccc3c3c4c(c5c6ccccc6n2c5c31)CNC4=O [Lestaurtinib] (first compound 0.8 µM, partner dose 0.004 µM) has a cell count of 92.5%. For `C[C@]12O[C@H](C[C@]1(O)CO)n1c3ccccc3c3c4c(c5c6ccccc6n2c5c31)CNC4=O` [Lestaurtinib] + CS(=O)(=O)CCNCc1ccc(-c2ccc3ncnc(Nc4ccc(OCc5cccc(F)c5)c(Cl)c4)c3c2)o1 [lapatinib] (first compound 0.004 µM, partner dose 0.8 µM), the cell count was 96.1%. In the case of `C[C@]12O[C@H](C[C@]1(O)CO)n1c3ccccc3c3c4c(c5c6ccccc6n2c5c31)CNC4=O` [Lestaurtinib] + Clc1ccc(Nc2nnc(Cc3ccncc3)c3ccccc23)cc1 [vatalanib] (first compound 0.004 µM, partner dose 2 µM), the cell count was 78.5%. `C[C@]12O[C@H](C[C@]1(O)CO)n1c3ccccc3c3c4c(c5c6ccccc6n2c5c31)CNC4=O` [Lestaurtinib] + Cc1cc(Nc2cc(N3CCN(C)CC3)nc(/C=C/c3ccccc3)n2)n[nH]1 [ENMD2076] (first compound 0.004 µM, partner dose 0.04 µM) gave a cell count of 109%. Work on `C[C@]12O[C@H](C[C@]1(O)CO)n1c3ccccc3c3c4c(c5c6ccccc6n2c5c31)CNC4=O` [Lestaurtinib] + C#Cc1cccc(Nc2ncnc3cc(OCCOC)c(OCCOC)cc23)c1 [erlotinib] (first compound 0.004 µM, partner dose 0.8 µM) yielded a cell count of 72.7%. `C[C@]12O[C@H](C[C@]1(O)CO)n1c3ccccc3c3c4c(c5c6ccccc6n2c5c31)CNC4=O` [Lestaurtinib] + Nc1ncn([C@H]2C[C@H](O)[C@@H](CO)O2)c(=O)n1 [decitabine] (first compound 0.004 µM, partner dose 0.1 µM) showed a cell count of 76.9%. With `C[C@]12O[C@H](C[C@]1(O)CO)n1c3ccccc3c3c4c(c5c6ccccc6n2c5c31)CNC4=O` [Lestaurtinib] + COCC[n+]1c2c(n(Cc3cnccn3)c1C)C(=O)c1ccccc1C2=O [YM155] (first compound 0.004 µM, partner dose 0.0004 µM) the cell count was 103%. `C[As](C)SC[C@H](NC(=O)CC[C@H](N)C(=O)O)C(=O)NCC(=O)O` [Darinaparsin] + COC(=O)c1sccc1S(=O)(=O)Nc1ccc(Nc2ccccc2)cc1OC [GSK0660] (first compound 0.4 µM, partner dose 1 µM) was tested, and the cell count was 88.5%. `C[C@]12O[C@H](C[C@]1(O)CO)n1c3ccccc3c3c4c(c5c6ccccc6n2c5c31)CNC4=O` [Lestaurtinib] + C[C@]1(c2nc3c(C(N)=O)cccc3[nH]2)CCCN1 [Veliparib] (first compound 0.004 µM, partner dose 1.4 µM) was tested, and the cell count was 83.5%. In the case of `C[As](C)SC[C@H](NC(=O)CC[C@H](N)C(=O)O)C(=O)NCC(=O)O` [Darinaparsin] + O=C(Oc1ccc([N+](=O)[O-])cc1)N1CCC(C(O)(c2ccc3c(c2)OCO3)c2ccc3c(c2)OCO3)CC1 [JZL184] (first compound 0.4 µM, partner dose 1 µM), the cell count was 95.3%.
